# According to PubChem BioAssay AID485313 (National Center for Advancing Translational Sciences (NCATS), 2010):
# Among all 320,000 compounds or so, about 7,600 (2.4%) were called active. This list was built around the results that the source calls inconclusive (neither active nor inactive); the mix of calls is not that of the screen. Calls follow the shape of the dose curve; as a rule, active = well fitted activation curve with a large enough effect; inconclusive = small, poorly fitted or top-dose-only effect; inactive = no such curve, though single readings can be large or run the other way. Potencies of inconclusive entries are left out as doubtful fits.
# Test: qHTS Assay for NPC1 Promoter Activators; also: nearly all actives have a fitted effect of over 60% in size;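 as to activation: reporter is driven by a mutant NPC1 promoter; % of control where 0% means no effect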
# Settings: Huh7 NPC1 promoter luciferase reporter, 24 h; series mostly up to 9.22 µM; activation: at the top concentration
# In short: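 Stable NPC1-promoter luciferase Huh7 line; cpd (DMSO) 24 h, 37 °C, 5% CO2; Amplite luciferase reagent 10 min RT; luminescence readout. qHTS format.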
# Potency is read from the fitted curve at half-maximal effect; tags tell the direction and shape of the fitted curve.
SMILES,Potency,activation
CS(=O)(=O)N1CCN(c2nc3ccc(Cl)cc3s2)CC1,"inconclusive [activator, partial curve]",
CC(=O)Nc1cc(C(=O)OCC(=O)c2ccccc2)ccc1C,active: 3.16 µM,
Cc1ccc2nc(-c3ccc(NS(=O)(=O)c4ccc(F)cc4)cc3)sc2c1,"inconclusive [activator, partial curve]",
NC(=O)C(=O)NN=C1C2CC3CC(C2)CC1C3,"inconclusive [activator, partial curve]",
N=C1C(c2nc3ccccc3s2)=C(O)CN1Cc1ccco1,"inconclusive [activator, partial curve]",
O=C(NCCc1nnc2ccccn12)c1cccs1,"inconclusive [activator, single point]",
CN=c1scc(C)n1/N=C/c1cc(Br)c(O)c(Br)c1,,inactive: -3.89%
COc1ccc(C(CC(=O)c2ccccc2)S(=O)(=O)c2ccccc2)cc1 (centres undefined),active: 3.55 µM,
Cc1nc2cc(F)ccc2n1C1CCN(S(=O)(=O)c2ccccc2)CC1,,inactive: 1.2%
Cc1ccc(-n2ncc3c(NCCCn4ccnc4)ncnc32)c(C)c1,,inactive: 0.356%
Cc1cc(C)nc(N/N=C/C(Cl)=C/c2ccccc2)n1,"inconclusive [activator, single point]",
N#C/C(C(=O)Oc1ccccc1)=C1/Nc2ccccc2-c2ccccc21,,inactive: -5.92%
COc1ccccc1NS(=O)(=O)c1cccc(C(=O)N/N=C/c2c(CO)cnc(C)c2O)c1,,inactive: -1.97%
Cc1nc(NCCc2ccccc2)sc1C(=O)O,"inconclusive [activator, single point]",
Cc1cc(-c2ccccc2)n(-c2ccccc2)n1,"inconclusive [activator, partial curve]",
Cc1cccc(C(=O)NC2CCCCCCC2)c1,active: 3.98 µM,
Nc1nc2ccccc2n1/N=C/c1ccc2c(c1)OCO2,active: 2 µM,
CCc1ccc2oc(C(=O)Nc3nonc3CC)c(C)c2c1,"inconclusive [activator, partial curve]",
COc1ccc(-c2ccc(SCC(=O)NC3CCCCC3)nn2)cc1,"inconclusive [activator, partial curve]",
COC(=O)c1ccccc1NC(=O)CSc1nnnn1CC(=O)O,"inconclusive [activator, single point]",

SMILES,Potency,activation
COc1ccccc1-c1nc(S(=O)(=O)c2ccccc2)c(N2CCCCC2)o1,,inactive: 1.03%
O=C(NNC(=S)Nc1ccc(F)cc1F)c1ccco1,"inconclusive [activator, partial curve]",
Cc1[nH]n(-c2ccccc2)c(=O)c1N=Nc1cccc(Cl)c1,"inconclusive [activator, single point]",
COC(=O)CSc1nnc(CNS(=O)(=O)c2ccc(Cl)cc2)n1C,,inactive: -4.18%
Cc1ccc(NC2Sc3ccccc3NC2=O)cc1 (centres undefined),active: 3.98 µM,
CC1CCC(NC(=O)CCNC(=O)c2ccc(Br)cc2)CC1 (centres undefined),active: 4.47 µM,
O=C1CCC(O)CCN1CCSc1ccccc1 (centres undefined),"inconclusive [activator, single point]",
CCOC(=O)COc1ccccc1C1Nc2ccccc2C(=O)N1c1cccc(Cl)c1 (centres undefined),"inconclusive [activator, partial curve]",
c1ccc(-c2ncc(CSc3nncn3-c3ccccc3)s2)cc1,,inactive: 0.531%
C=CCc1ccccc1OCCn1nnc2ccccc21,,inactive: 0.241%
CCOC(=O)c1c(Cc2ccc(Cl)cc2)c[nH]c1C,"inconclusive [activator, single point]",
COc1ccc(NC(=O)c2ccccc2NC(=O)CSc2ccc(Cl)cc2)cc1,"inconclusive [activator, partial curve]",
CC(=O)NCCc1nc2cc(NC(=O)c3ccccc3Cl)ccc2n1C,"inconclusive [activator, single point]",
Cc1cccc(N=Nc2c(O)[nH]c3ccc(F)cc23)c1,"inconclusive [activator, single point]",
CCC(=O)Nc1nnc(CCc2ccccc2)s1,,inactive: -0.9%
Cc1ccc(/C=N/c2sc3c(c2C(N)=O)CCCC3)o1,"inconclusive [activator, single point]",
COc1ccc(C(=O)Nc2ccccc2C(=O)N2CCCCCC2)cc1,"inconclusive [activator, single point]",
COc1cc(SC)ccc1C(=O)Nc1ncc(C)s1,"inconclusive [activator, single point]",
CC(=O)c1cccc(OCC(=O)Nc2cc(Cl)ccc2-n2cncn2)c1,"inconclusive [activator, single point]",
